The supplement of paper PMC4723716
± gives the uncertainty stated by the source. Whole data set: some 9,900 compounds, median “viability index relative to DMSO control” near 1, cut for the lowest 2% near 0.85. The list shows a part of the results.

Each compound was assayed on Plasmodium falciparum NF54 stage V gametocytes (assay: viability index relative to DMSO control (fraction); higher = less gametocyte killing). Settings: 2.5 µM, library set: Broad Institute DOS, incubation time: 72 h.
How it was run: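 Viability index is the count of red-stained particles in a well divided by the plate mean of solvent-only wells. Particles of 20–70 µm2 were counted in one imaged field per well after one to two hours with 3 µl of 2.5 µM MitoTracker Red CMXRos and 0.13% saponin. Before staining, P. falciparum NF54 stage V gametocytes in serum-free medium (0.75% gametocytemia, 1.25% hematocrit, 10 µl, 1,536-well plates) were kept with compound at 2.5 µM for 72 hr at 37°C under low oxygen.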

Compound	viability index
COc1cccc(C(=O)Nc2ccc3c(c2)C(=O)N(C)[C@@H]2CC[C@H](CC(=O)N[C@@H](C)c4ccccc4)O[C@H]2CO3)c1	1.08 ± 0.21
C[C@@H]1CN([C@@H](C)CO)C(=O)CCCn2nncc2CO[C@@H]1CN(C)C(=O)Nc1cccc(Oc2ccccn2)c1	1.06 ± 0.02
C/C=C/c1ccc([C@@H]2[C@@H](CN(CC)C(C)=O)N(Cc3cccnc3)[C@H]2CO)cc1	1.03 ± 0.012
Cc1nn(C)cc1NC(=O)C[C@@H]1CC[C@@H]2[C@@H](COc3ccc(NC(=O)c4cccc(F)c4)cc3C(=O)N2C)O1	1.13 ± 0.051
O=C(Cc1cccnc1)N1CC(=O)N2[C@H](CO)[C@H](c3ccc(/C=C/c4ccccc4)cc3)[C@@H]2C1	1.05 ± 0.067
O=C(Nc1ccc2c(c1)[C@@H]1C[C@@H](CC(=O)N3CCOCC3)O[C@H](CO)[C@@H]1O2)Nc1ccccc1F	1.05 ± 0.02
C[C@H]1CN([C@@H](C)CO)C(=O)c2c(c3ccccc3n2C)-c2ccccc2CO[C@H]1CN(C)C(=O)[C@@H](Cc1ccccc1)N(C)C	0.992 ± 0.13
O=C(NC[C@@H]1[C@H](c2ccccc2)[C@@H](CO)N1Cc1cccnc1)c1ccccn1	0.966 ± 0.04
CCC(=O)N1[C@H](CO)[C@H](c2ccccc2-c2ccccc2)[C@@H]1C#N	1.12 ± 0.15
COc1ccc2c3c([nH]c2c1)[C@@H](CO)N(Cc1cc(OC)cc(OC)c1)C[C@]31CN(C1)C(=O)Nc1c(C)noc1C	0.974 ± 0.12
N#C[C@@H]1[C@@H](c2ccc(C#Cc3cccc(F)c3)cc2)[C@H](CO)N1C(=O)C1CCOCC1	0.997 ± 0.057
C/C=C/c1ccc([C@@H]2[C@@H]3CN(C(=O)Nc4ccc(C(F)(F)F)cc4)C[C@H]2N3)cc1	0.868 ± 0.081
CO[C@@H](CN(C)C(=O)c1cnccn1)[C@@H](C)CN([C@@H](C)CO)S(=O)(=O)c1ccccc1	1.01 ± 0.048
O=C(Nc1ccccc1F)N1C[C@@H]2[C@H](c3ccccc31)[C@H](CO)N2C(=O)Cc1cccnc1	1.02 ± 0.015
C[C@@H]1CCCCO[C@H](CN(C)C(=O)c2ccncc2)[C@@H](C)CN([C@@H](C)CO)C(=O)c2cc(NC(=O)CCC(F)(F)F)ccc2O1	1.08 ± 0.017
C[C@H](CO)N1C[C@H](C)[C@H](CN(C)C(=O)NC2CCCCC2)OCc2ccccc2-c2c(n(C)c3ccccc23)C1=O	0.9728 ± 0.001
N#Cc1ccc(-c2ccc([C@@H]3[C@@H](CO)N4C(=O)CNC[C@H]34)cc2)cc1	1 ± 0.057
N#C[C@H]1[C@@H](c2ccc(C3=CCCCC3)cc2)[C@@H](CO)N1C(=O)Nc1ccccc1F	1.0169 ± 0.00043
O=C(C[C@@H]1C[C@@H]2c3cc(NS(=O)(=O)c4ccccc4)ccc3O[C@@H]2[C@@H](CO)O1)N1CCOCC1	0.988 ± 0.15
